Hit rate of the full screen: of about 48,000 compounds, about 120 (0.25%) were called active. About 4% were inconclusive and are not listed. Calls come from the whole dose curve; as a rule, active = well fitted activation curve with a large enough effect; inconclusive = small, poorly fitted or top-dose-only effect, or another doubt; inactive = no such curve, though single readings can be large or run the other way. This is one part of the list.
Assay: Primary qHTS for Identification of Small Molecule Activators of Huntingtin-Antisense Promoter Activity; note: nearly all actives have a fitted effect of over 55% in size
Conditions: HEK293 HTT-AS promoter firefly luciferase reporter, 24 h; series mostly up to 57.5 µM; activity change, positive = activation: at the top concentration
Outline: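 HEK293 Fluc reporter, 2,500 cells/well, 24 h pre-culture; cpds up to 57.5 uM final, 24 h 37 degrees C; Dual-Glo, 10 min RT; normalized vehicle = 0%, zero RLU = -100%.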

Activity change, positive = activation, inactive:
O=C(C1CC1)N1CCc2cc(Br)cc(S(=O)(=O)N3CCN(c4ccccc4F)CC3)c21 -14.5%
COc1cccc(NC(=O)c2ccc(CNS(=O)(=O)c3ccc4c(c3)C(C)(C)C(=O)N4C)cc2)c1 -37.9%
O=C(/C=C/c1ccco1)Nc1ccc(Cl)c(-c2nc3cc(Cl)ccc3o2)c1 -11.8%
Cc1c(Cl)cccc1NC(=O)CSc1cc(-c2ccccc2)ncn1 -11.9%
Cc1ccc(NC(=O)C2CCN(c3nn4c(=O)cc(C)nc4s3)CC2)cc1 -6.25%
CC(C)n1c(=O)c2oc3ccccc3c2n(Cc2ccccc2F)c1=O -30.1%
Cc1ccc(-c2nnc(Nc3ccc(O)cc3)c3ccccc23)cc1S(=O)(=O)NCC1CCCO1 (stereo unspecified) -49.3%
Cc1ccc(S(=O)(=O)Nc2ccc3c(c2)c(C(=O)OC(C)C)c(C)n3S(=O)(=O)c2ccc(C)cc2)cc1 -23.4%
COc1ccc(S(=O)(=O)NCCc2cn3ccsc3n2)cc1 -12.4%
CC(=O)c1ccc(NC(=O)c2ccc(CN3C(=O)CCn4nc(C)cc43)cc2)cc1 7.86%
O=S(=O)(Nc1ccc(Br)cc1)c1ccc2nc(-c3ccccc3)[nH]c2c1 -34.7%
Cc1ccc(CCNC(=O)CN2CCN(Cc3ccc(Cl)cc3)C2=O)cc1 -7.03%
O=C(CCC1N=C2c3ccccc3N=C(SCc3cccc(F)c3)N2C1=O)NCc1ccc(F)cc1 (stereo unspecified) 1.51%
O=C(Nc1ccccc1Br)N1CCN2CCCCC2C1 (stereo unspecified) -2.75%
Cc1cccc(-c2[nH]c(C(C)(C)C)nc2-c2ccc3c(c2)OCO3)n1 -30.2%
Cc1nn2c(=O)cc(COC(=O)c3ccc(F)cc3)nc2s1 14.1%
NC1CCN(c2cccc(Cl)n2)CC1 3.98%
CCc1ccc(NC(=O)CN2C(=O)CCSc3ccc(S(=O)(=O)N4CCCC4)cc32)cc1 -9.47%
COc1ccc(C(=O)c2cn(Cc3cccc(C)c3)c3cc4c(cc3c2=O)OCCO4)cc1OC -18.1%
COc1ccc(CCNC(=O)Cn2ccc3cc(S(=O)(=O)N4CCCCC4)ccc32)cc1OC -35.8%
CCN(CC)CCNC(=O)Cn1ncc2c3ccccc3n(Cc3ccccc3C)c2c1=O -15.6%
Cn1nnnc1SCCCNCc1ccccc1OCc1ccccc1F -20.6%
COC(=O)c1ccccc1NC(=O)c1cc(=O)c2ccc(C)c(C)c2o1 9.78% [at 11.5 µM, percent change from vehicle, -100% = no light]
CCOC(=O)c1cccc(Nc2cc(C)nc(C)n2)c1 3.35%
Cc1nnc2c3ccccc3nc(N3CCN(c4cccc(Cl)c4)CC3)n12 -20.8%
CCOCCCn1c(=N)c(C(=O)NC2CCCC2)cc2c(=O)n3cccc(C)c3nc21 -4.01%
Cc1cccc(-n2ncc3c(Nc4c(C)cc(C)cc4C)ncnc32)c1 -22.7%
Cc1noc(Cn2c(=O)c3ccccc3n(CC(=O)Nc3ccccc3C(F)(F)F)c2=O)n1 -9.06%
Oc1ccc(Nc2nc(-c3ccc(Cl)cc3)nc3ccccc23)cc1 -20.3%
COc1ccccc1CNC(=O)CN1C(=O)CCCc2ccccc21 3.84%
CCCCOc1ccc(C2c3c(oc4ccccc4c3=O)C(=O)N2c2nc(C)c(C(=O)OCC)s2)cc1OC (stereo unspecified) -2.82% [at 11.5 µM, percent change from vehicle, -100% = no light]
CCN(C(=O)c1c(O)c2c(Cl)cccc2n(C)c1=O)c1ccccc1 -0.165%
COc1ccc(NC(=O)C2(S(=O)(=O)c3ccc(C)cc3)CC2)c(OC)c1 -6.13%
CC(=O)NC(=O)c1ccccc1O -7.75%
COc1ccc(-c2c(C)c3ccc(O)c(CN4CCCCC4C)c3oc2=O)cc1OC (stereo unspecified) -12.8%
CCCN(CCC)C(=O)Cn1c(=O)n(-c2ccc(CC)cc2)c(=O)c2c3c(sc21)CCC3 -22.5%
CCSc1ncc(Cl)c(C(=O)Nc2ccc(S(=O)(=O)N3CCCCC3CC)cc2)n1 (stereo unspecified) -25.6%
Cc1ccc(CN(C(=O)COc2cccc(Cl)c2)c2ccccn2)o1 -20.1%
CCOc1ccc(NC(c2ccc(Cl)cc2)c2nnc(-c3cccc(F)c3)o2)cc1 (stereo unspecified) -2.92%
COc1cc(O)ccc1-c1nc2ccc(Br)cn2c1Nc1ccccc1C -40.6%
O=C(Nc1ccccc1F)C(c1ccccc1)N1Cc2ccccc2C1=O (stereo unspecified) -0.107%
O=C(CSc1nccn1Cc1ccc(F)cc1)NC1CCCC1 -14.9%
CCCOC(=O)c1ccc(NC(=O)C2CC(=O)N(c3ccc(C)cc3)C2)cc1 (stereo unspecified) 6.28%
CCOC(=O)C1CCN(c2nc3c(S(=O)(=O)c4ccc(CC)cc4)nnn3c3ccc(Cl)cc23)CC1 -22.4%
CC(=O)c1ccc(NC(=O)C2CCCN(S(=O)(=O)c3ccc(Br)s3)C2)cc1 (stereo unspecified) 0.765%
CCOc1ccc(NC(=O)c2sc3nc4n(c(=O)c3c2C)CCCC4)cc1 7.36%
Cc1cc(Cl)ccc1NC(=O)CS(=O)(=O)c1cccc2nsnc12 -20.2%
Cc1cccc(NC(=O)c2ccc(F)c(S(=O)(=O)NCc3ccc4c(c3)OCO4)c2)c1 -20.1%
Cc1ccn2c(Nc3ccc4c(c3)OCO4)c(-c3ccc(C)o3)nc2c1 22.9%
Cc1ccc(C(=O)NCCSc2c[nH]c3ccccc23)cc1C -2.12%
CCOc1ccc(N(CC)C(=O)c2cc3c(s2)-c2ccc(Cl)cc2SC3)cc1 -11.5%
Cc1cc(C)cc(NC(=O)CSc2oc(-c3cccs3)nc2S(=O)(=O)c2ccc(Br)cc2)c1 9.23%
CCc1ccc(NCc2cc3ccc(OC)cc3n(CC(=O)Nc3ccccc3OC)c2=O)cc1 -13.8%
COC(=O)c1sc2cccc(F)c2c1S(=O)(=O)NC(C)c1ccccc1 (stereo unspecified) -12.1%
COc1ccc(OCc2nc(-c3ccc(OC)c(OC)c3)no2)cc1 -20.8%
CC(=O)Nc1ccc(C)cc1-c1nc2ccccc2n(Cc2cccc(Br)c2)c1=O -1.74%
CC(=O)Nc1c(C)nn(-c2ccccc2)c1N1CCC(C(=O)Nc2ccc(C)cc2Cl)CC1 25.3%
COc1cccc(-n2ccnc2SCC(=O)Nc2nc3ccc(C)cc3s2)c1 -41.7%
C1CCC(C(CC2CCCCN2)C2CCCCC2)CC1 (stereo unspecified)
CCCc1nc2nc(C)c(NS(=O)(=O)c3ccc(C)c(C)c3)c(=O)n2[nH]1 -3.07%
CCOC(=O)C1CCCN(C(=O)c2ccc(C)c(NC(=O)c3nsc4ccccc34)c2)C1 (stereo unspecified) -20.3%

— PubChem BioAssay AID1508624 (National Center for Advancing Translational Sciences (NCATS), 2021)
